# Measurements reported in the supplement of paper PMC3334620.
# Over roughly 33,000 sequences, “E-score (-0.5 to 0.5)” has its median near -0.035; the highest 2% begin near 0.34. The list shows a part of the results.
# Target: T1, Mot3 (UniProt P54785)
# T1 sequence: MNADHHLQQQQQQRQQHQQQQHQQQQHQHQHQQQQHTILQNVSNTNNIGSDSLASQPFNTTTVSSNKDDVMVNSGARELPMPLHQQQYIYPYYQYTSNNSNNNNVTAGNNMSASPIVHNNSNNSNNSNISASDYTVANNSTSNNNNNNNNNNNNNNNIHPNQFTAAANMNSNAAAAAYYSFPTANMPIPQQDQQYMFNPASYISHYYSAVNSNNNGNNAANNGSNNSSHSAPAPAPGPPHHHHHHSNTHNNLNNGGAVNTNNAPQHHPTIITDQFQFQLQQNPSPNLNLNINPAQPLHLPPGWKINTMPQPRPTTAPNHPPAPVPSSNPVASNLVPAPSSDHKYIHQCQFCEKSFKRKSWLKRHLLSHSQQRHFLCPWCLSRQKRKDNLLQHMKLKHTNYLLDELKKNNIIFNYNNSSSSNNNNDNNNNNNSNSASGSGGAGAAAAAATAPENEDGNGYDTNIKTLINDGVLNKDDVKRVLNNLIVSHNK
# Test: PBM E-score (8-mer binding enrichment) (E-score (-0.5 to 0.5)); higher = stronger / more preferred TF binding; most listed sequences are background and not binding sites
# Conditions: protein concentration: 200 nM; construct: GST-full length
# Description: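 Universal 'all 10-mer' protein binding microarrays (Agilent AMADID 015681) probed with GST-tagged S. cerevisiae TFs (full-length or DBD) made by in vitro transcription/translation (PURExpress), about 100-200 nM. Bound TF was detected with fluorescent anti-GST. Each ungapped 8-mer (which stands for itself and its reverse complement) is scored by the PBM enrichment score (E-score), a modified Wilcoxon-Mann-Whitney statistic from -0.5 to +0.5, computed with the Universal PBM Analysis Suite. Scale: above 0.35 generally sequence-specific binding.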
row,Sequence,PBM E-score
1,GCCTATAC,0.314
2,AGATTCCT,0.0382
3,ACGAACCA,0.0376
4,CCATTTGC,-0.0613
5,GCATCTGA,-0.26
6,AAACGATT,-0.0409
7,CAGCGAGG,-0.276
8,CAAGTAAG,0.205
9,ATAGCTCG,-0.117
10,CTACCAGA,0.0177
11,ACGACACA,0.237
12,ATAGCCAT,-0.107
13,AGTTGGGA,-0.0558
14,GAGTGAGA,-0.143
15,ATTCGACC,-0.261
16,CGCGTTCC,0.14
17,TGTAATAA,0.375
18,CTGATGAA,-0.0356
19,AACCTGTC,-0.0306
20,CGCCGAAC,-0.182
21,GTTTGCGA,0.101
22,ATGCGTAC,0.205
23,TCACAAGA,-0.0781
24,CGCAGCCA,-0.271
25,GGTAAACC,-0.211

row,Sequence,PBM E-score
1,AATCCAAT,0.00584
2,GCCATAAA,-0.062
3,GTACGTAA,0.327
4,AACAGAGT,0.0995
5,AATGCGAA,0.0627
6,GATGGATA,-0.2
7,TAAGGCGA,-0.0665
8,ACCTTACT,0.0387
9,CCCAAGAA,-0.0638
10,ATAACTCG,-0.00659
11,GTTATAAC,0.117
12,CGAGCTTC,-0.0561
13,AGCGCGCA,0.00343
14,AATCCCTC,-0.24
15,GCCTATGA,0.232
16,ACCATCTA,-0.076
17,AGTTCAAG,0.0525
18,CCATACTC,-0.245
19,CATTTGCA,0.0857
20,AAGTTGAA,0.016
21,AGAACCTA,0.161
22,ATGTCTCG,-0.135
23,ACCACCGG,-0.266
24,CAGCAAGC,-0.332
25,ACTCACTC,-0.0672

row,Sequence,PBM E-score
1,CACCACTC,-0.283
2,GTCACGCA,0.0746
3,ACTATAGA,-0.103
4,CCATACAG,-0.0635
5,ACCCCTGG,-0.397
6,GAGCCCCA,-0.213
7,AATTGAAC,0.136
8,AGCGGCAA,-0.145
9,CCCGCCCC,-0.08
10,ATCACTAA,-0.0234
11,CCATGCGA,-0.0741
12,AAGAATCC,0.126
13,CTGATCGC,-0.132
14,AATGAGTG,0.0115
15,ATGCGGTC,-0.0067
16,ACATCTCG,-0.0334
17,AGGCATTC,0.255
18,CCTGCTAG,0.14
19,AAGGATGC,0.116
20,GACGCAAA,-0.0731
21,GCTGACTA,-0.147
22,TAATATAA,0.176
23,GAAGCGCC,-0.121
24,ACTATGCA,0.0508
25,TAGCTTAA,-0.0485

row,Sequence,PBM E-score
1,GGCGTCTA,0.00538
2,TTAGACAA,0.0947
3,GGTTGTGA,-0.111
4,AAGATGTG,0.0946
5,ACGCCCAC,-0.134
6,GGACTACC,-0.349
7,TCCAAAGA,0.0729
8,CTACTGAG,-0.175
9,CCTCAATA,-0.115
10,ATTACTGA,0.216
11,ACGCACCG,0.0838
12,CGTTGCGA,0.041
13,GCGCTGAA,-0.242
14,ATGACCTG,-0.0714
15,AAGAAAAA,0.0945
16,GAGTACCA,0.0202
17,AGGTGTAC,0.0888
18,AGTTCCAT,-0.038
19,AAACACCT,0.0867
20,TATCGTGA,-0.0512
21,CCTTATAC,0.144
22,CAGTCACG,0.335
23,CCTGGTAG,-0.101
24,GGTAACAC,0.258
25,CCGGTGCG,-0.0852

row,Sequence,PBM E-score
1,CAGTGGTC,-0.168
2,GGTCCTGA,-0.159
3,CACACCGG,-0.0495
4,CACACGCA,0.127
5,CCTAAGCC,-0.15
6,CAAACCAG,-0.049
7,CCCGAACC,-0.0412
8,ACAGCTTG,0.0423
9,ACTCCACT,-0.107
10,CTGCCAGA,-0.171
11,ATATACCG,0.0394
12,CGCAGCTA,-0.244
13,AGTACACC,0.052
14,CTTTCACC,-0.00668
15,TAATGCGA,0.094
16,CTGCTGGC,-0.257
17,AAATATTT,0.137
18,CCACTCTA,-0.138
19,AATTTTCA,0.121
20,GACACTCA,-0.124
21,ACCGTCCG,-0.375
22,AATCCGGT,-0.156
23,CGATGGCG,-0.115
24,CAGGGGAC,-0.307
25,ACCTCCCG,-0.249

row,Sequence,PBM E-score
1,TATCTGCA,-0.176
2,CTTCACCC,-0.126
3,AAATTCTT,-0.0697
4,TACAAGGA,0.33
5,GGCTCCTA,-0.00542
6,ATGTAATA,0.405
7,TTGAGAAA,-0.0424
8,GCGGACCA,-0.18
9,CTGTGGAA,0.0451
10,CAAGATCG,0.0649
11,CTGTAAGC,-0.0275
12,GGTGCATA,-0.129
13,GCTAATCC,-0.0829
14,CACTGGGC,-0.147
15,AACGTCGC,0.0102
16,AAGCCGGA,-0.0693
17,CTTGAACA,0.0396
18,CAAGAGCC,-0.155
19,ACGCTGCC,-0.0716
20,ATTGGCAG,-0.0716
21,CAGCAAAG,-0.134
22,TATCTTGA,0.0695
23,GTCTCGAA,-0.111
24,AGTCTCTC,-0.267
25,AAACAATA,0.131

row,Sequence,PBM E-score
1,CAGCCCGC,-0.251
2,ACGTGCAA,0.133
3,GTTACGAA,0.113
4,GAAACCAC,-0.0434
5,TGCGCTAA,0.139
6,GCCGTTCC,0.111
7,CAAACACG,0.249
8,GACTAGAC,-0.0722
9,GCTCTTTA,-0.142
10,ACATTTAT,0.142
11,ATAAATGG,-0.167
12,CGGGATTA,-0.0775
13,ATGACGAG,-0.207
14,GCAACCCC,-0.0374
15,ACTGAGAA,-0.101
16,ACGGACTC,-0.159
17,ATCGTCAA,0.112
18,CACCTTAG,-0.123
19,AGCATTAG,-0.0753
20,ATCGTTGA,-0.0591
21,AAACGGTA,-0.0775
22,ACCCACGT,0.0556
